Test results as given in US12145987B2, “Method for depleting cytotoxic T cells using an anti-LAG-3 antibody composition” (Daiichi Sankyo Company, Limited, priority 2017, dated 2024).

Assays:
[1] = system: 293T-lacZ cells expressing human LAG-3; experiment: In vitro ADCC assay, human PBMC effector cells, β-galactosidase release; assay type: cell-based; settings: target 293T-lacZ/hLAG-3 cells, effector human PBMCs, percentage of cells lysed
Method: 293FT cells (Invitrogen Corp.) were transfected with pLenti6/V5-GW/lacZ, and ViraPower™ Packaging Mix (Invitrogen Corp.) according to the accompanying protocols to prepare a recombinant lentivirus to express the β-galactosidase gene. 293T cells were infected by the obtained recombinant lentivirus according to the protocol of ViraPower Lentiviral Expression Systems (Invitrogen Corp). Virus-infected cells were selected using 10 μg/mL blasticidin (Invitrogen Corp.) to obtain a line stably expressing β-galactosidase. An expression plasmid of the full-length human LAG-3 was introduced into the 293T cells stably expressing β-galactosidase (hereinafter, referred to as 293T-lacZ) using Lipofectamine 2000 (manufactured by Invitrogen Corp.), and the cells were cultured for 1 day and then dissociated and recovered using TrypLExpress (manufactured by Invitrogen Corp). The cells were washed twice with phenol red-free RPMI1640 containing 5% FBS (hereinafter, referred to as a “medium for ADCC”). The number of live cells was counted by the trypan blue dye exclusion test. The cells were resuspended to 1×10^5 cells/ml in a medium for ADCC and used as target cells.
PBMCs were separated from human peripheral blood by Ficoll centrifugation, and a suspension adjusted to a live cell density of 1.2×10^6 cells/mL in a medium for ADCC was used as effector cells.
The ADCC activity of the purified rat anti-human LAG-3 antibodies rLA204, rLA212, rLA225, rLA869, and rLA1264 was investigated by the following method. To a 96-well U-bottom microplate containing 50 μL/well of the antibody solution, was added 50 μL/well of the target cells (which will be hereinafter referred to as 293T-lacZ/hLAG-3 cells) of Example 1)-5-1, followed by standing at 4° C. for 30 minutes. Then, 75 μL/well of effector cells prepared as in Example 1)-5-2 (which was however suspended to 2×10^6 cells/mL) was added thereto, followed by centrifugation at room temperature at 1200 rpm for 5 minutes, and thereafter the cells were cultured overnight under conditions of 37° C. and 5% CO2. On the next day, 50 μl of the supernatant was recovered into a black plate (manufactured by Corning Inc). A solution of β-Glo assay system (manufactured by Promega Corp.) was added thereto at 50 μl/well. The luminescence intensity was measured using a plate reader (ENVISION; manufactured by PerkinElmer, Inc). The percentage of cells lysed by ADCC activity was calculated according to the following formula. Percentage of cells lysed (%)=(A−B)/(C−B)×100 • A: Count of each sample well • B: Average of spontaneous release (wells without antibody added) counts (n=3)
When adding the antibody, 50 μL of a medium for ADCC was added thereto. Except for that, the same operation as in the sample well was performed.
C: Average of maximum release (wells containing target cells lysed with a surfactant) counts (n=3)
When adding the antibody and adding the effector cells, 50 μL and 75 μL of a medium for ADCC were added thereto respectively. For the assay, 175 μl of the β-Glo assay system solution was added to each well containing the target cells and mixed therewith. A 100 μl aliquot thereof was added to a black plate to carry out the assay.
The ADCC activity of the humanized anti-human LAG-3 antibodies (hLA212) was investigated by the method described in Example 2)-2.
The in vitro ADCC activity of the humanized anti-human LAG-3 antibody hLA212_H4/L2 was evaluated by the method described in Example 7)-2.

[2] = target: T1, human LAG-3 expressed on 293T-lacZ cells (Homo sapiens, UniProt P18627); experiment: Binding activity to 293T-lacZ cells expressing human LAG-3 by flow cytometry; settings: mean fluorescence intensity
T1 construct: An expression plasmid of the full-length human LAG-3 was introduced into the 293T cells stably expressing β-galactosidase; expressed in transfected cells; host or cells: 293T-lacZ cells (293T stably expressing β-galactosidase), transient transfection
T1 sequence (P18627 23-525): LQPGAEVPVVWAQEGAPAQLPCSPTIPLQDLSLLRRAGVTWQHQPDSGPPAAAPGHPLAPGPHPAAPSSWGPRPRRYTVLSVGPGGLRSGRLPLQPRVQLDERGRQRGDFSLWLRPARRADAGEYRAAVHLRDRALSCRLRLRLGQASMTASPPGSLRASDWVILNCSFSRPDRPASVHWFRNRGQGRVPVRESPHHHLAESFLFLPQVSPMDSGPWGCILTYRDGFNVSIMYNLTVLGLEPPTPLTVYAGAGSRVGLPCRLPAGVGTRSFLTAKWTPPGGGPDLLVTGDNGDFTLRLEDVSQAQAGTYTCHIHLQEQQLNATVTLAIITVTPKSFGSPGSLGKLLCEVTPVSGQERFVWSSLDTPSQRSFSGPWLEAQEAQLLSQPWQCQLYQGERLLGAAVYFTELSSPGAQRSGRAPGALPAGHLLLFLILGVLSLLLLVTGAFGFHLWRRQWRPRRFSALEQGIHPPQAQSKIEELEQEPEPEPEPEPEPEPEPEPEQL
Method: The expression plasmid pcDNA3.1-hLAG-3 of human LAG-3 was introduced into the 293T-lacZ cells (described in Example 1)-5-1), using Lipofectamine 2000 (manufactured by Invitrogen Corp.), and the cells were cultured for 1 day and thereafter used for flow cytometry. The flow cytometry was performed according to the method described in Example 1)-4, except that an Anti-Human IgG PE conjugate (manufactured by Jackson ImmunoResearch Laboratories, Inc.) diluted 200-fold with a FACS buffer was used as the secondary antibody.
The human LAG-3-expression plasmid pcDNA3.1/hLAG-3 was introduced into the 293T-lacZ cells (described in Example 1)-5-1), using Lipofectamine 2000 (manufactured by Invitrogen Corp.), and the cells were cultured for 1 day and thereafter used for flow cytometry. The flow cytometry was performed according to the method described in Example 1)-4, but an Anti-Human IgG PE conjugate (manufactured by Jackson ImmunoResearch Laboratories, Inc.) diluted 200-fold with a FACS buffer was used as the secondary antibody.
The binding of the humanized anti-human LAG-3 antibody hLA212_H4/L2 to human LAG-3-expressing 293T-lacZ cells was investigated by flow cytometry according to the method described in Example 7)-2.

B1: hLA212_H3/L4: humanized antibody; heavy chain positions 20 to 470 of SEQ ID No: 30, light chain positions 21 to 234 of SEQ ID No: 38 (antibody)
heavy: EVQLVESGGGLVQPGGSLRLSCAASGFTYRSYVMAWVRQAPGKGLEWVASISTGGGNTYYRDSVKGRFTISRDNAKNTLYLQMDSLRAEDTAVYYCAEDMSNSGYGLFDYWGQGTLVTVSSASTKGPSVFPLAPSSKSTSGGTAALGCLVKDYFPEPVTVSWNSGALTSGVHTFPAVLQSSGLYSLSSVVTVPSSSLGTQTYICNVNHKPSNTKVDKRV[left out - human IgG1 Fc]
light: DIQMTQSPSSMSISVGDRVTMTCKAGQNVDNNIAWYQKKPGQSPKLLIYYASNRNTGVPSRFSGSGSGTDFTLTISSVQPEDFATYYCQRISNSPYTFGQGTKLELKRTVAAPSVFIFPPSDEQLKSGTASVVCLLNNFYPREAKVQWKVDNALQSGNSQESVTEQDSKDSTYSLSSTLTLSKADYEKHKVYACEVTHQGLSSPVTKSFNRGEC
ADCC activity on cells expressing human LAG-3 [1]: concentration-dependent ADCC activity against the 293T-lacZ cells expressing human LAG-3, almost comparable to the human chimeric anti-LAG-3 antibody cLA212 | binding activity to 293T-lacZ cells expressing human LAG-3 [2]: concentration-dependent binding activity to the 293T-lacZ cells expressing human LAG-3, comparable to the human chimeric anti-LAG-3 antibody cLA212
